The supplement of paper PMC12217912
Some of the results follow. Sequences were assembled here from the parent chain. Inactive controls read about 0.05.

B1: TEV protease; numbered along this chain (parent)
chain: MGESLFKGPRDYNPISSSICHLTNESDGHTTSLYGIGFGPFIITNKHLFRRNNGTLVVQSLHGVFKVKDTTTLQQHLVDGRDMIIIRMPKDFPPFPQKLKFREPQREERICLVTTNFQTKSMSSMVSDTSCTFPSGDGIFWKHWIQTKDGQCGSPLVSTRDGFIVGIHSASNFTNTNNYFTSVPKNFMELLTNQEAQQWVSGWRLNADSVLWGGHKVFMVKPEEPFQPVKEATQL

Variants of: B1
Assay: raw area under fraction-flipped curve 0-4 h after induction (AUC4h, not background-subtracted), DNA-recorder readout of cleavage of the substrate (dimensionless); higher = more cleavage of the substrate by the protease variant
Conditions: temperature: 34 °C; time window: 0-4 h after rhamnose induction
Method: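 In vivo DNA recorder in E. coli TOP10(DE3) ΔrhaA at 34 °C. Each TEVp single-site mutant (parent TEVp 0) is paired with a single-site variant of the 7-mer TEVs (canonical ENLYFQ|S). The substrate sits between flexible linkers in a Bxb1-sfGFP-TEVs-SsrA fusion, so cleavage stabilises Bxb1 and speeds flipping of a recombination array, read by NGS. The value is the raw area under the fraction-flipped curve over 0-4 h after rhamnose induction (AUC4h), with ≥20 reads per time point. It is not background-subtracted; inactive controls average about 0.047.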
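Also: Bxb1 expression induced with 0.2% (w/v) L-rhamnose at OD600 near 0.5, cultures sampled hourly, flipped fraction per protease–substrate barcode pair counted by paired-end Illumina sequencing.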

Variant | area with substrate ENLYFQA | area with substrate ENLYFQC | area with substrate ENLYFQD | area with substrate ENLYFQG | area with substrate ENLYFQH | area with substrate ENLYFQI | area with substrate ENLYFQK | area with substrate ENLYFQL | area with substrate ENLYFQM | area with substrate ENLYFQN | area with substrate ENLYFQP | area with substrate ENLYFQQ | area with substrate ENLYFQR | area with substrate ENLYFQS | area with substrate ENLYFQT | area with substrate ENLYFQV | area with substrate ENLYFQW | area with substrate ENLYFQY | area with substrate ENLYFQF | area with substrate ENLYFQE
E25D | 0.0968 | 0.121 | 0.0775 | 0.102 | 0.0782 | 0.0591 | 0.0718 | 0.0491 | 0.0927 | 0.0857 | 0.0634 | 0.0855 | 0.0618 | 0.101 | 0.0701 | 0.0512 | 0.0659 | 0.0828 | – | –
H21R | 0.1 | 0.107 | 0.0562 | 0.0947 | 0.0912 | – | 0.0664 | 0.0574 | 0.0816 | 0.0639 | 0.0631 | – | 0.0619 | 0.0983 | – | – | 0.0636 | – | 0.0919 | –
L33W | 0.0588 | 0.0628 | 0.0569 | 0.0546 | 0.066 | 0.0551 | 0.0586 | 0.0641 | 0.0526 | 0.066 | 0.0599 | 0.0663 | 0.0559 | 0.0602 | 0.0635 | 0.0554 | – | 0.0383 | – | 0.0602
L33G | 0.0879 | 0.103 | 0.0749 | 0.107 | 0.0826 | 0.044 | 0.0484 | 0.0542 | 0.0745 | – | 0.0478 | 0.0574 | 0.0653 | 0.0944 | 0.0783 | 0.064 | 0.056 | 0.0526 | – | –
I36Q | 0.0709 | 0.0683 | – | 0.0639 | 0.0546 | 0.0397 | 0.0452 | 0.0584 | – | 0.0511 | 0.0565 | – | – | 0.0688 | – | 0.052 | – | – | 0.072 | –
F41T | 0.072 | 0.113 | 0.0449 | 0.0785 | 0.087 | 0.0529 | – | 0.0624 | 0.0975 | 0.058 | 0.0494 | 0.0625 | 0.0587 | 0.0929 | 0.0606 | 0.0485 | 0.0634 | 0.0733 | 0.0708 | –
T23H | 0.083 | 0.133 | 0.0623 | 0.0847 | 0.0769 | 0.0626 | 0.0699 | 0.0544 | 0.0762 | 0.0731 | – | 0.0748 | 0.0701 | 0.096 | 0.056 | – | – | – | 0.0726 | –
T23V | 0.121 | 0.116 | – | 0.091 | 0.0779 | 0.0668 | 0.0722 | 0.0293 | 0.101 | 0.0847 | – | – | – | 0.105 | 0.0776 | 0.086 | 0.0743 | 0.0878 | 0.0892 | –
R10H | 0.0907 | 0.0856 | 0.0641 | 0.0883 | – | – | 0.065 | 0.058 | 0.0918 | 0.0679 | – | – | 0.0741 | 0.0868 | 0.0588 | 0.0711 | 0.0624 | – | – | 0.0677
R10Q | 0.11 | 0.108 | 0.0651 | 0.102 | – | 0.0562 | 0.0596 | 0.0494 | 0.0979 | 0.074 | – | – | 0.0654 | 0.111 | 0.0661 | 0.0349 | 0.0763 | 0.0877 | – | –
Y12G | 0.0919 | 0.11 | 0.0619 | 0.096 | 0.087 | 0.0572 | – | 0.063 | 0.0817 | – | 0.0652 | 0.0811 | 0.0473 | 0.0971 | 0.0626 | 0.0622 | 0.0611 | 0.0791 | 0.0765 | 0.0694
